Screen size: about 3,200 compounds; about 75 (2%) showed an effect of 50% or more. Some of the results follow.
test system: T1, S. aureus MSSA476; parameters: species or system S. aureus MSSA476 (TSB) or V. cholerae SAD30 (LB); 384-well bacterial growth screen at 25 uM, OD600 relative to DMSO control; conditions: relative growth, OD600, TSB; 25 µM; inhibitor
T1 construct: MSSA476

SMILES	% of control remaining
C=CC(=O)N1CC[C@H](Oc2ccc(F)cc2)C1 [2-A15, 1-[(3S)-3-(4-fluorophenoxy)pyrrolidin-1-yl]prop-2-en-1-one]	159.443%
COc1ccc(C=C(C#N)C(=O)Nc2ccccc2C(=O)O)cc1O [9-A18, 2-[2-cyano-3-(3-hydroxy-4-methoxyphenyl)prop-2-enamido]benzoic acid]	91.0861%
C=CC(=O)NCc1ccnc(N2CCSCC2)c1 [1-I14, N-{[2-(thiomorpholin-4-yl)pyridin-4-yl]methyl}prop-2-enamide]	123.077%
C=CC(=O)NC(C)(Cn1cccn1)C(N)=O (stereo not shown) [1-A20, N-{1-carbamoyl-1-[(1H-pyrazol-1-yl)methyl]ethyl}prop-2-enamide]	125.187%
Cc1ccsc1C=C(C#N)C(=O)NC1CCCCC1C (stereo not shown) [8-G07, 2-cyano-N-(2-methylcyclohexyl)-3-(3-methylthiophen-2-yl)prop-2-enamide]	80%
Cc1cc(C)c(NC(=O)C(C#N)=Cc2cc(F)ccc2F)c(C)c1 [8-A10, 2-cyano-3-(2,5-difluorophenyl)-N-(2,4,6-trimethylphenyl)prop-2-enamide]	81.9917%
C=CC(=O)N1CCc2nn(C(C)C)c(=O)cc2C1 [3-B22, 6-(prop-2-enoyl)-2-(propan-2-yl)-2H,3H,5H,6H,7H,8H-pyrido[4,3-c]pyridazin-3-one]	137.571%
N#CC(=Cc1cc(C#N)cs1)C(=O)NC(N)=O [8-F04, {2-cyano-2-[(4-cyanothiophen-2-yl)methylidene]acetyl}urea]	77.3444%
O=C(CCl)NCC(=O)Nc1nccs1 [5-G22, 2-chloro-N-{[(1,3-thiazol-2-yl)carbamoyl]methyl}acetamide]	86.3388%
CC(Cl)C(=O)Nc1ccc2c(c1)OCCCO2 (stereo not shown) [4-K10, 2-chloro-N-(3,4-dihydro-2H-1,5-benzodioxepin-7-yl)propanamide]	112.053%
COc1ccc(N(Cc2cccs2)C(=O)CCl)cc1 [5-O17, 2-chloro-N-(4-methoxyphenyl)-N-[(thiophen-2-yl)methyl]acetamide]	86.7031%
C=CC(=O)Nc1cc(S(=O)(=O)N2CCCCCC2)ccc1OC [1-A15, N-[5-(azepane-1-sulfonyl)-2-methoxyphenyl]prop-2-enamide]	132.22%
CNC(=O)c1ccn(C2CCCN(C(=O)CCl)C2)n1 (stereo not shown) [5-I08, 1-[1-(2-chloroacetyl)piperidin-3-yl]-N-methyl-1H-pyrazole-3-carboxamide]	84.5173%
CC(Cl)C(=O)N1CCN(c2nnnn2-c2ccccc2)CC1 (stereo not shown) [7-I12, 2-chloro-1-[4-(1-phenyl-1H-1,2,3,4-tetrazol-5-yl)piperazin-1-yl]propan-1-one]	106.436%
C=CC(=O)N1CCN(S(=O)(=O)c2ccc(C(C)(C)C)cc2)CC1 [3-A19, 1-[4-(4-tert-butylbenzenesulfonyl)piperazin-1-yl]prop-2-en-1-one]	138.964%
CC(Cl)C(=O)N1C[C@@H]2CCC[C@@]2(c2nc(-c3cnccn3)no2)C1 (mixture of isomers) [7-C03, rac-1-[(3aR,6aR)-3a-[3-(pyrazin-2-yl)-1,2,4-oxadiazol-5-yl]-octahydrocyclopenta[c]pyrrol-2-yl]-2-chloropropan-1-one]	75.3532%
O=C(CCl)c1ccc2c(c1)CCN(C(=O)C(F)(F)F)C2 [10-E09, 1-[6-(2-chloroacetyl)-1,2,3,4-tetrahydroisoquinolin-2-yl]-2,2,2-trifluoroethan-1-one]	20.625%
CC(Cl)C(=O)N1C2CCC1CC(O)(Cc1ccc(F)cc1F)C2 (stereo not shown) [7-G18, 2-chloro-1-{3-[(2,4-difluorophenyl)methyl]-3-hydroxy-8-azabicyclo[3.2.1]octan-8-yl}propan-1-one]	100.785%
CC(C)c1cccc(C(C)C)c1NC(=O)CCl [5-G13, N-[2,6-bis(propan-2-yl)phenyl]-2-chloroacetamide]	107.468%
CC(Cc1ccc(Cl)s1)NC(=O)CCl (stereo not shown) [5-N11, 2-chloro-N-[1-(5-chlorothiophen-2-yl)propan-2-yl]acetamide]	85.2459%
COc1ccc(C=C(C#N)C(=O)Nc2cccnc2)cc1OC [8-M05, 2-cyano-3-(3,4-dimethoxyphenyl)-N-(pyridin-3-yl)prop-2-enamide]	123.154%
COc1ccc(S(=O)(=O)N2CCCCC2)cc1NC(=O)CCl [6-G13, 2-chloro-N-[2-methoxy-5-(piperidine-1-sulfonyl)phenyl]acetamide]	107.22%
Cn1ccc(C(=O)CCl)c1 [10-D08, 2-chloro-1-(1-methyl-1H-pyrrol-3-yl)ethan-1-one]	111.563%
CC(Cl)C(=O)N1CCN(c2ccccc2)CC1.Cl (stereo not shown) [4-E14, 2-chloro-1-(4-phenylpiperazin-1-yl)propan-1-one hydrochloride]	118.914%
C=CC(=O)N1CCC(C)C1 (stereo not shown) [2-H17, 1-(3-methylpyrrolidin-1-yl)prop-2-en-1-one]	110.009%
COc1ccc2[nH]c3c(c2c1)CCCC3NC(=O)CCl (stereo not shown) [5-G07, 2-chloro-N-(6-methoxy-2,3,4,9-tetrahydro-1H-carbazol-1-yl)acetamide]	100.911%
Cc1c(C=C(C#N)C(=O)Nc2cnc3ccccc3c2)cc(C#N)n1C [9-N15, 2-cyano-3-(5-cyano-1,2-dimethyl-1H-pyrrol-3-yl)-N-(quinolin-3-yl)prop-2-enamide]	116.554%
CCc1ccc(Cc2cnc(NC(=O)CCl)s2)cc1 [4-F19, 2-chloro-N-{5-[(4-ethylphenyl)methyl]-1,3-thiazol-2-yl}acetamide]	143.687%

Reference: PMC11995724, “Antibiotic target discovery by integrated phenotypic and activity-based profiling of electrophilic fragments” (Cell chemical biology, 2025)
